Results taken from the antibiotic and cytotoxicity screens of Wong et al. (2023).
The other results are listed elsewhere or left out.

Each compound was assayed on S. aureus RN4220 (assay: growth inhibition call (relative growth <= 0.2)). Conditions: 50 µM.

Growth inhibition call, inactive:
C[C@H]1CN([C@@H](C)CO)C(=O)c2cc(NC(=O)CCC(F)(F)F)ccc2O[C@@H]1CN(C)S(C)(=O)=O
COC[C@@H](O)CSc1[nH]c(C)nc1[N+](=O)[O-]
CN1C(=O)c2cc(NC(=O)c3ccc(F)c(F)c3)ccc2OC[C@H]2O[C@H](CC(=O)N3CCOCC3)CC[C@@H]21
C[C@@H]1CN([C@H](C)CO)C(=O)c2cc(NC(=O)CCN3CCOCC3)ccc2O[C@H]1CN(C)Cc1ccccc1
C[C@@H]1CCCCO[C@@H](CN(C)Cc2ccc3c(c2)OCO3)[C@@H](C)CN([C@H](C)CO)C(=O)c2cc(NC(=O)C3CCCCC3)ccc2O1
COc1ccc(S(=O)(=O)Nc2ccc3c(c2)C(=O)N([C@@H](C)CO)C[C@@H](C)[C@H](CN(C)S(=O)(=O)c2ccc(Cl)cc2)OCCCC[C@@H](C)O3)cc1
C[C@@H]1CN([C@H](C)CO)C(=O)c2cc(NC(=O)NC3CCCCC3)ccc2O[C@@H](C)CCCCO[C@@H]1CN(C)S(=O)(=O)c1cccs1
O=C(CN1CCOCC1)NCC[C@@H]1CC[C@H](NC(=O)Cc2ccccn2)[C@H](CO)O1
CCS(=O)(=O)N1CC[C@]2(CC1)CN([C@H](CO)c1[nH]c3cc(ccc3c12)OC)C(=O)Cc1ccccn1
C[C@@H]1CN([C@@H](C)CO)C(=O)c2cc(NC(=O)Cn3cnnn3)ccc2O[C@@H]1CN(C)Cc1ccc2c(c1)OCO2
CNC(=O)Nc1ccc(-c2nc(N3C[C@H]4CC[C@@H](C3)O4)c3cnn(C4CCC5(CC4)OCCO5)c3n2)cc1
C[C@H](CO)N1C[C@H](C)[C@H](CN(C)Cc2ccc(-c3ccccc3)cc2)Oc2c(NC(=O)Nc3ccc(C(F)(F)F)cc3)cccc2C1=O
C=CCN1C(=O)[C@]2(O[C@H](CCn3cc(CCO)nn3)[C@@H]([Si](C)(C)c3ccc(OC)cc3)[C@@H]2C)c2cc(N3CCC3=O)ccc21
COc1ccc(NC(=O)N(C)C[C@H]2Oc3c(NC(=O)C4CCOCC4)cccc3C(=O)N([C@@H](C)CO)C[C@H]2C)cc1
C[C@@H]1CN([C@@H](C)CO)C(=O)c2cccc(NC(=O)Nc3ccccc3)c2O[C@@H]1CN(C)Cc1ccc(-c2ccccc2)cc1
CC(=O)N[C@H]1C/C=C/C[C@@H](CC(=O)NCc2ccc(Cl)cc2)C(=O)NC[C@@H](c2ccccc2)OC1=O
C[C@@H]1CN([C@@H](C)CO)C(=O)Cc2cc(NC(=O)Cn3cnnn3)ccc2O[C@H]1CN(C)Cc1ccc(Oc2ccccc2)cc1
CC(C)NC(=O)N(C)C[C@@H]1Oc2ccc(NS(=O)(=O)c3ccc(Cl)cc3)cc2C(=O)N([C@H](C)CO)C[C@@H]1C
C[C@H](CO)N1C[C@H](C)[C@@H](CN(C)S(=O)(=O)c2cccs2)Oc2c(NS(C)(=O)=O)cccc2C1=O
C[C@@H](N)c1cnn(-c2ccc(F)cc2)c1
CCOC(=O)c1cc2c(c(-c3cccc(-c4cccc(OC)c4)c3)n1)[C@H](CCO)N(S(=O)C(C)(C)C)C2 (stereo partly specified)
COC(=O)Nc1nc2ccc(Sc3ccccc3)cc2[nH]1
Cc1noc(C)c1NC(=O)N(C)C[C@@H]1OCCCC[C@H](C)Oc2ccc(NC(=O)NC3CCCCC3)cc2C(=O)N([C@@H](C)CO)C[C@H]1C
CC(=O)N[C@H](CC(C)C)C(=O)O
Cc1ccc(S(=O)(=O)N(C)C[C@H]2Oc3c(NS(=O)(=O)c4ccc(F)cc4)cccc3C(=O)N([C@@H](C)CO)C[C@@H]2C)cc1
Cc1noc(C)c1S(=O)(=O)Nc1ccc2c(c1)CC(=O)N([C@H](C)CO)C[C@@H](C)[C@@H](CN(C)S(C)(=O)=O)O2
CN(C)CC(=O)N[C@@H]1CC[C@@H](CCNC(=O)C2CCC2)O[C@@H]1CO
Cc1noc(C)c1NC(=O)Nc1ccc2c(c1)CC(=O)N([C@@H](C)CO)C[C@H](C)[C@@H](CN(C)Cc1ccc(Oc3ccccc3)cc1)O2
Cc1ccc2c(c1)[C@](C)(O)CCS2
C[C@@H]1O[C@@H](O[C@@H]2[C@@H](O)[C@H](O)[C@@H](CO)O[C@H]2c2c(O)cc3oc(-c4ccc(O)cc4)cc(=O)c3c2O)[C@H](O)[C@H](O)[C@H]1O
C[C@@H]1CCCCO[C@H](CN(C)CC2CC2)[C@H](C)CN([C@H](C)CO)C(=O)c2cc(NC(=O)NC3CCCCC3)ccc2O1
